The values that follow come from the antibiotic and cytotoxicity screens of Wong et al. (2023).

Structures are written as SMILES. The list shows a part of the results.

This assay relates to S. aureus RN4220. The experiment in a line: growth inhibition call (relative growth <= 0.2). The note with it: 50 µM.
Regarding `O=C1c2c(O)cc(CO)cc2C(OC2OC(CO)C(O)C(O)C2O)c2cccc(OC3OC(CO)C(O)C(O)C3O)c21` (stereo not drawn) [CASANTHRANOL [cascaroside A shown]], the growth inhibition call is “inactive”.

For the molecule `COCCOC(=O)N1C(=O)[C@@]2(c3cc(C#Cc4ccc(OC)cc4)ccc31)[C@H](C(=O)N1CCc3cc(OC)c(OC)cc3C1)[C@H]1C(=O)O[C@H](c3ccccc3)[C@H](c3ccccc3)N1[C@@H]2c1ccccc1OCCO`, the growth inhibition call is “inactive”.

With `CC(C=CC=C(C)C=CC1=C(C)CCCC1(C)C)=CC=CC=C(C)C=CC=C(C)C=CC1=C(C)CCCC1(C)C` [beta-CAROTENE [2mM]], the growth inhibition call is “inactive”.

With `CC(=O)Oc1c(C)c(C)c2c(c1C)CCC(C)(CCCC(C)CCCC(C)CCCC(C)C)O2` (stereo not drawn) [alpha-TOCHOPHERYL ACETATE [4mM]], the growth inhibition call is “inactive”.

In the case of `Cc1c(C)c2c(c(C)c1O)CCC(C)(CCCC(C)CCCC(C)CCCC(C)C)O2` (stereo not drawn) [alpha-TOCHOPHEROL [4 mM]], the growth inhibition call was “inactive”.

As to `Cn1nnnc1SCC(=O)Nc1ncccn1`, the growth inhibition call is “inactive”.

Turning to `CCC=CCC=CCC=CCC=CCC=CCCCC(=O)OCC` [OMEGA-3-ACID ESTERS (EPA shown)], the growth inhibition call is “inactive”.

`COc1ccc(CN(C)C[C@@H]2OCCCC[C@@H](C)Oc3ccc(NC(=O)NC4CCCCC4)cc3C(=O)N([C@@H](C)CO)C[C@@H]2C)cc1`: the growth inhibition call was “inactive”.

Regarding `CC(=O)Oc1cccc(C)c1` [meta-CRESYL ACETATE], the growth inhibition call was “inactive”.

As for `C[C@H](CO)N1C[C@H](C)[C@@H](CN(C)S(=O)(=O)c2ccc(F)cc2)Oc2ncc(Br)cc2C1=O`, the growth inhibition call is “inactive”.

For `CC1(C)CCC2(C)CCC3(C)C(=CCC4C5(C)CCC(O)C(C)(C)C5CCC43C)C2C1` (stereo not drawn) [beta-AMYRIN], the growth inhibition call is “inactive”.

Take `CC(CCC(=O)O)C1CCC2C3CC(O)C4CC(O)CCC4(C)C3CCC12C` (stereo not drawn) [alpha-HYDROXYDEOXYCHOLIC ACID]: the growth inhibition call is “inactive”.

Take `Cl.NCCCC(=O)O` [gamma-AMINOBUTYRIC ACID HYDROCHLORIDE]: the growth inhibition call is “inactive”.

As to `CNC1C(OC2C(OC3C(O)C(O)C(NC(=N)N)C(O)C3NC(=N)N)OC(C)C2(O)C=O)OC(CO)C(O)C1O.O=S(=O)(O)O` (stereo not drawn) [STREPTOMYCIN SULFATE [5mM; 10% aq DMSO + 5mM ethanolamine]], the growth inhibition call is “active”.

Turning to `C[C@@H]1CCCCO[C@H](CN(C)C(=O)Nc2ccc3c(c2)OCO3)[C@@H](C)CN([C@H](C)CO)C(=O)c2cc(NC(=O)Nc3ccc(F)cc3)ccc2O1`, the growth inhibition call was “inactive”.

With `C[C@H](CO)N1C[C@H](C)[C@@H](CN(C)CC2CCCCC2)Oc2ccc(NS(=O)(=O)c3cn(C)cn3)cc2CC1=O`, the growth inhibition call is “inactive”.

In the case of `NNC(=O)CCCCCCC(=O)O`, the growth inhibition call is “inactive”.

Consider `C[C@H]1CCCCO[C@@H](CN(C)Cc2ccc(C(F)(F)F)cc2)[C@@H](C)CN([C@@H](C)CO)C(=O)c2cc(NC(=O)Nc3ccccc3)ccc2O1`, for which the growth inhibition call was “inactive”.

Turning to `CCCN(C)C[C@H]1OCCCC[C@@H](C)Oc2ccc(NC(=O)Nc3ccccc3)cc2C(=O)N([C@@H](C)CO)C[C@H]1C`, the growth inhibition call was “inactive”.

As to `CO[C@@H]1CN(C)C(=O)c2cc(NS(=O)(=O)CC(F)(F)F)ccc2OC[C@@H](C)N(Cc2nccs2)C[C@H]1C`, the growth inhibition call was “inactive”.

As to `COc1ccc(S(=O)(=O)Nc2ccc3c(c2)C(=O)N([C@H](C)CO)C[C@@H](C)[C@@H](CN(C)S(C)(=O)=O)O3)cc1`, the growth inhibition call was “inactive”.

As to `C[C@H](CO)N1C[C@H](C)[C@@H](CN(C)Cc2ccc(C(=O)O)cc2)Oc2ccc(NC(=O)CCCN(C)C)cc2C1=O`, the growth inhibition call was “inactive”.

As to `Cn1cnc(S(=O)(=O)N2C[C@H](O)COC[C@H]3O[C@H](CC(=O)NC4CCCC4)CC[C@@H]32)c1`, the growth inhibition call is “inactive”.

For the molecule `COc1ccc(NC(=O)N(C)C[C@H]2OCCCC[C@@H](C)Oc3ccc(NC(=O)CCC(F)(F)F)cc3C(=O)N([C@H](C)CO)C[C@@H]2C)cc1`, the growth inhibition call was “inactive”.

As for `CC12CCCC(O)(C1)C1CC(C)(C)C1CC2` (stereo not drawn) [beta-CARYOPHYLLENE ALCOHOL], the growth inhibition call was “inactive”.

As to `O=c1cccc(C=Cc2ccc3c(c2)OCO3)o1` [6-(3,4-METHYLENEDIOXYSTYRYL)-alpha-PYRONE], the growth inhibition call is “inactive”.

For the molecule `CC(C)C#Cc1ccc2c(c1)O[C@H](CN(C)C(=O)c1cnccn1)[C@H](C)CN([C@@H](C)CO)S2(=O)=O`, the growth inhibition call is “inactive”.

For `CN(C)CC(=O)N[C@H]1C=C[C@H](CC(=O)O)O[C@H]1CO`, the growth inhibition call is “inactive”.
